Laboratory results published in PubChem BioAssay AID652104 (National Center for Advancing Translational Sciences (NCATS), 2013).
Among all 410,000 compounds or so, about 7,200 (1.8%) were called active. Inconclusive results, whose numbers are uncertain, are shown with a selection of clear calls. The call rests on the fitted dose curve; in most records, active means well fitted activation curve with a large enough effect; inconclusive means small, poorly fitted or top-dose-only effect, or another doubt; inactive means no such curve, though single readings can be large or run the other way. No potency is given beside an inconclusive call; the fits are too rough.

Test: qHTS of TDP-43 Inhibitors; further: nearly all actives have a fitted effect of over 50% in size; on growth rescue (activation): % of control where 0% means no effect
Settings: TDP-43 expressing yeast growth rescue, BacTiter-Glo, 24 h; growth rescue (activation): at 46.1 µM (top of the series)
Summary of the method: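 Cell-based yeast growth screen: TDP-43 expression induced in galactose, inoculum OD600=0.02 after raffinose pregrowth to mid-log. Read-out BacTiter-Glo luminescence at 24 hr, 30 deg C; inhibition of toxicity seen as signal increase.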
Potency means the concentration at half of the fitted maximal effect; tags describe the fitted curve by direction and shape.

| SMILES | Potency | growth rescue (activation) |
| --- | --- | --- |
| C[C@]12CC[C@H](OC(=O)CCC(=O)O)CC1=CCC1C2CC[C@@]2(C)C1CC[C@@H]2OC(=O)CCC(=O)O (some centres undefined) | inconclusive [activator, single point] |  |
| O=C(NCc1ccccc1)c1cccn(Cc2cccc(Cl)c2)c1=O | inconclusive [activator, partial curve] |  |
| CCCCCCCCn1sccc1=O |  | inconclusive: -90.7% [activator] |
| COc1ccc(/C=N\NC(=O)c2cccc(F)c2)cc1COc1ccccc1 |  | inactive: -40.4% |
| N#Cc1ccc(C(=O)N2CCN(c3nc4ccc(F)cc4s3)CC2)cc1 | inconclusive [activator, full curve] |  |
| CN(C(=O)c1cccc(NC(=O)Cc2cccc([N+](=O)[O-])c2)c1)C1CCCCC1 |  | inactive: -14.5% |
| CCCCOc1ccc(CC2C(=O)N(C)C(=O)N(C)C2=O)cc1 | inconclusive [activator, single point] |  |
| CCOC(=O)C1(c2ccccc2)CCN(CCC(=O)Nc2ccccc2OC)CC1 |  | inactive: 2.74% |
| Cc1ccc(CN2Cc3ccc(Br)cc3-n3nncc3C2)cc1 | inconclusive [activator, full curve, poor fit] |  |
| CCCn1c(C(=O)c2ccc(OC)cc2)nc2ccccc21 | inconclusive [activator, single point] |  |
| COC(=O)c1cn(CCOc2ccccc2)c2ccccc12 | inconclusive [activator, partial curve] |  |
| O=C(c1ccc(N2CCCCC2)c([N+](=O)[O-])c1)N1CCC2(CC1)OCCO2 | inconclusive [activator, partial curve] |  |
| O=c1[nH]c2ccccc2n1C1CCN(CCCC(c2ccc(F)cc2)c2ccc(F)cc2)CC1 | inconclusive [activator, partial curve] |  |
| Cc1nc2c(-c3ccc(F)cc3)c(C)nn2c(C)c1CCC(=O)N1CCC2(CC1)OCCO2 | inconclusive [activator, partial curve] |  |
| CCCCc1ccc(NC2=NCCCS2)cc1 |  | inactive: -2.37% |
| C=CCOC(Cn1ccnc1)c1ccc(Cl)cc1Cl (centres undefined) | active: 11.2 µM |  |
| CCOc1ccc(-c2c(C)n(-c3ccc(OCC)cc3)c3[n+]2CCCCC3)cc1 |  | inactive: -14% |
| CCC(=NCCCN(CC)CC)c1c(O)n(C2CCCCC2)c(=O)[nH]c1=O | inconclusive [activator, single point] |  |
| C[C@]12CC[C@@H]3c4ccc(O)c(O)c4CC[C@H]3[C@@H]1CC[C@@H]2O | inconclusive [activator, partial curve] |  |
| NCC(=O)c1ccccc1 | inconclusive [activator, partial curve] |  |
| C[C@]12CCC3C(CC[C@H]4C[C@@H](O)CC[C@]34C)C1=CC[C@@H]2O (some centres undefined) | inconclusive [activator, single point] |  |
| COc1ccc(Cl)cc1NC(=O)CN1C(=O)CN=C(c2ccccc2)c2cc(Cl)ccc21 | inconclusive [activator, single point] |  |
| CCC(=O)c1cn(Cc2ccc(C#N)cc2)c2ccccc12 | inconclusive [activator, partial curve] |  |

| SMILES | Potency | growth rescue (activation) |
| --- | --- | --- |
| Cc1ccc(-n2c(/C=C/c3ccc(Br)s3)nc3ccccc3c2=O)cc1 | inconclusive [activator, single point] |  |
| Oc1ccc(O)c2c1C1(Cl)C(Cl)=C(Cl)C2(Cl)C1(Cl)Cl |  | inconclusive: -94.1% [activator] |
| COC(=O)C1=C(c2ccc3ccccc3c2)C[C@@H]2CC[C@H]1N2C(=O)NCc1ccco1 |  | inactive: 37.5% |
| C[C@]12CCC3C(CC[C@H]4CC(=O)CC[C@]34C)C1CCC2=O (some centres undefined) | inconclusive [activator, single point] |  |
| COc1ccc(C(=O)O)cc1OC |  | inactive: 19.9% |
| N#Cc1ncc(N=Cc2ccc(N(CCCl)CCCl)cc2)s1 | inconclusive [activator, partial curve] |  |
| Cc1cccc(-n2c(/C=C/c3ccccc3O)nc3ccccc3c2=O)c1 |  | inactive: 18.4% |
| CCC(=O)N1N=C(c2c(O)n(C)c(=O)n(C)c2=O)CC1c1ccccc1 (centres undefined) | inconclusive [activator, partial curve] |  |
| CC(=O)Nc1cccc2c1Cc1ccccc1-2 | inconclusive [activator, full curve, poor fit] |  |
| CCOC(=O)[C@]12Cc3c(cc(OC)c(OC)c3OC)[C@H]1N(C)C(=O)c1cc(OC)ccc12 | active: 17.8 µM |  |
| COc1nnc(-c2ccc(N3CCCCC3)c(NC(=O)c3ccccc3)c2)c2ccccc12 | inconclusive [activator, single point] |  |
| COc1ccccc1CN1CC(C(=O)NCCN(C)CCc2ccccc2)CCC1=O (centres undefined) |  | inactive: -32.1% |
| CCOC(=O)c1cnc(SCc2ccc(Cl)c(Cl)c2)nc1N1CC1 | inconclusive [activator, single point] |  |
| CC1(C(=O)O)CC12c1ccccc1-c1ccccc12 (centres undefined) | active: 3.16 µM |  |
| Clc1ccc2sc(C3CCNCC3)nc2c1 |  | inactive: 5.72% |
| Cc1c(C(c2ccc(Cl)cc2Cl)c2c(O)c3ccccc3oc2=O)c(=O)n(-c2ccccc2)n1C (centres undefined) | active: 10 µM |  |
| Cc1cccc(OCCn2cccc2/C=C2/C(=O)NC(=O)N(Cc3ccco3)C2=O)c1 |  | inactive: 0.805% |
| Cc1ccccc1CN1C(=O)CN=C(c2ccccc2)c2cc(Cl)ccc21 | inconclusive [activator, single point] |  |
| Cc1ccc2c(c1)C=CC(C#N)N2C(=O)Oc1ccccc1 (centres undefined) | inconclusive [activator, partial curve] |  |
| O=C1/C(=C\c2ccc(Cl)cc2Cl)N2CCC1CC2 | inconclusive [activator, single point] |  |
| O=C(Oc1c(Br)cc(Br)c2cccnc12)N1CCCCC1 | inconclusive [activator, single point] |  |
| O=c1[nH]cnc2[nH]ncc12 | inconclusive [activator, partial curve, poor fit] |  |
| O=C(c1ccccc1)c1cn(CC(=O)N2CCCc3ccccc32)c2ccccc12 | inconclusive [activator, partial curve] |  |

| SMILES | Potency | growth rescue (activation) |
| --- | --- | --- |
| COC(=O)C1=C(c2cccc(OCc3ccccc3)c2)C[C@@H]2CC[C@H]1N2C(=O)NCc1ccc(Cl)cc1 | inconclusive [activator, partial curve] |  |
| C=C(CO)CC1CC(O)[C@]2(C)OC3CC4OC5C[C@]6(C)O[C@]7(C)CCC8OC9C[C@]%10(C)OC%11C(C)=CC(=O)OC%11CC%10OC9C[C@@H](C)C8OC7CC6O[C@]5(C)C/C=C\C4OC3CC2O1 (some centres undefined) |  | inactive: 9.27% |
| NP(=O)(Oc1ccccc1Cl)Oc1ccccc1Cl | inconclusive [activator, partial curve] |  |
| C[C@]12CCC(=O)C(O)=C1CC[C@@H]1[C@@H]2CC[C@]2(C)C(=O)CC[C@@H]12 | active: 12.6 µM |  |
| O=C(CSc1ccccn1)Nc1cccc2ccccc12 | inconclusive [activator, single point] |  |
| COC(=O)C1=C(c2cc3ccccc3s2)C[C@@H]2CC[C@H]1N2C(=O)NCc1ccco1 | inconclusive [activator, full curve, poor fit] |  |
| CNC(C)(C)Cc1ccccc1 | inconclusive [activator, partial curve, poor fit] |  |
| O=C(Oc1ccc2ccccc2c1)c1ccco1 | active: 11.2 µM |  |
| O=C(CCc1ccccc1)N1Cc2cc(-c3ccccc3)ccc2-n2nncc2C1 | inconclusive [activator, single point] |  |
| Cc1ccc(F)cc1NC(=O)c1ccc(Cn2nc(N3CCN(c4ccccc4)CC3)ccc2=O)o1 | active: 25.1 µM |  |
| CN(CC(=O)NC1CCCC1)S(=O)(=O)c1cccc(Cl)c1 | inconclusive [activator, single point] |  |
| CCCC(=O)OCC[N+](C)(C)C | inconclusive [activator, full curve] |  |
| O=C1/C(=C/c2cc([N+](=O)[O-])ccc2Cl)N2CCC1CC2 | active: 17.8 µM |  |
| COCCCNC(=O)c1c(NC(=O)c2ccccc2Cl)n(Cc2ccccc2)c2nc3ccccc3nc12 |  | inactive: -12% |
| CCOC(=O)[C@]12Cc3cc(Cl)ccc3[C@H]1N(C(C)C)C(=O)c1ccccc12 |  | inconclusive: -87.8% [activator] |
| CC(C)(C)OC(=O)NCc1ccc(CNC(=O)c2[nH]cnc2C(=O)Nc2ccccc2F)cc1 | inconclusive [activator, partial curve] |  |
| CCOC(=O)C1CCCN(c2ccc([N+](=O)[O-])c3nonc23)C1 (centres undefined) |  | inactive: -11.6% |
| CN1C(=O)C(=Cc2ccccc2OCCOc2ccc([N+](=O)[O-])cc2)C(=O)N(C)C1=O |  | inactive: -72.1% |
| CCCOc1ccc(CC2CCC(=O)NC2=O)cc1 (centres undefined) | inconclusive [activator, full curve] |  |
| C=CCn1c(O)c(C(CC)=NCCC2=CCCCC2)c(=O)[nH]c1=O | active: 17.8 µM |  |
| Cc1cc(NC(=O)c2cccn(Cc3cccc(Cl)c3)c2=O)no1 | inconclusive [activator, partial curve, poor fit] |  |
| FC(F)(F)c1ccc(-c2ccc3c(c2)CNCc2cnnn2-3)cc1 | inconclusive [activator, full curve] |  |
| CCOC(=O)c1c(-n2c(C)cc(/C=C3/C(=O)NC(=O)N(CC)C3=O)c2C)sc2c1CCCC2 |  | inactive: -2.81% |
